We go through 24 compounds from publication PMC4336329 (PLoS ONE, 2015).

The whole screen tested about 310,000 compounds, of which about 2,200 (0.71%) showed an effect of 50% or more. Effects have a minus sign here. Some of the results follow.

The test deals with human ether-à-go-go-related gene (hERG) potassium channel (human, UniProt Q12809). The test is described as follows: primary screen, population patch clamp on CHO cells stably expressing hERG.
human ether-à-go-go-related gene (hERG) potassium channel, sequence (Q12809 whole entry, looked up): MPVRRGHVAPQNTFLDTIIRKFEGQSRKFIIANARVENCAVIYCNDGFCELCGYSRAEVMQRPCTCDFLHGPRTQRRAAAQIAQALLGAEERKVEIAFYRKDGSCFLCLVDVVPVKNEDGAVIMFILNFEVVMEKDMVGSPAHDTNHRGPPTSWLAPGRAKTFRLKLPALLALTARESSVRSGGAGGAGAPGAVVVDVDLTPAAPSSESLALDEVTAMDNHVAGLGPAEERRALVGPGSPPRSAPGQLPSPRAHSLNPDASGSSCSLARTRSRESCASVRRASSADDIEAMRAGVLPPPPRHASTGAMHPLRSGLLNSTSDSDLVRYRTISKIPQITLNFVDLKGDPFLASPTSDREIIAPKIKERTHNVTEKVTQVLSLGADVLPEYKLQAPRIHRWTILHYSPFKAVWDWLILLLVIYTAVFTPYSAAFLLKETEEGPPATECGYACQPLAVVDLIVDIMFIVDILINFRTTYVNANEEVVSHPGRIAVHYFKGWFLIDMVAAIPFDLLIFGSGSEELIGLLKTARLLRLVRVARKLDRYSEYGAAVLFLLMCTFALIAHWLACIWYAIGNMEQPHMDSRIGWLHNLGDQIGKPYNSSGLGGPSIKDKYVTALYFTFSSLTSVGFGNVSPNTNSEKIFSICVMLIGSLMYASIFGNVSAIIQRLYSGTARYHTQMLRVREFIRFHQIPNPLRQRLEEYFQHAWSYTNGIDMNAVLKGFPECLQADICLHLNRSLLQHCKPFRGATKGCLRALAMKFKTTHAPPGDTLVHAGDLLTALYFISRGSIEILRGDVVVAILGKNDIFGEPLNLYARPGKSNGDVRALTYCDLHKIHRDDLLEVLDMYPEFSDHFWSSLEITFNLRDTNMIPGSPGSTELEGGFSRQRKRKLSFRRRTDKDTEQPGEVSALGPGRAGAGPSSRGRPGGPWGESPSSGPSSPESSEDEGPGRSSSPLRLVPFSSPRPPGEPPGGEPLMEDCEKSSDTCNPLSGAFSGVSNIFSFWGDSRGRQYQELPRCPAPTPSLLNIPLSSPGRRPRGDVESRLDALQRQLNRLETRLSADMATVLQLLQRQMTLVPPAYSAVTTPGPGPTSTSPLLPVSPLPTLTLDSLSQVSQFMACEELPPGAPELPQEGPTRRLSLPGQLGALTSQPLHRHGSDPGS
Turning to `O=C(Nc1nc2ccccc2s1)c1cc(-c2ccccc2)nn1-c1ccccc1`, the “hERG current change (%, negative = inhibition) at 1uM” value was 11.4%.
Take `O=C(NCc1ccccc1F)C(=O)NCC1CCCN1S(=O)(=O)c1cccs1` (stereo not drawn): the “hERG current change (%, negative = inhibition) at 1uM” value is 10.6%.
`COC(=O)C1=C(c2ccc(C(C)=O)cc2)C[C@@H]2CC[C@H]1N2C(=O)N1CCCCC1`: the “hERG current change (%, negative = inhibition) at 1uM” value is 4.19%.
With `Cn1c(=O)c2[nH]c(SCC(=O)c3ccc(F)cc3)nc2n(C)c1=O`, the “hERG current change (%, negative = inhibition) at 1uM” value was determined as 14.6%.
Take `Cc1ccc(NC(=O)c2c(C)nn(-c3ccccc3)c2Cl)c(C)c1`: the “hERG current change (%, negative = inhibition) at 1uM” value is given as 12.6%.
Turning to `O=Cc1ccc2oc3nc4n(c(=O)c3c(=O)c2c1)CCCS4`, the “hERG current change (%, negative = inhibition) at 1uM” value was determined as 4.35%.
`Cc1ccc2ncnc(Oc3ncccc3NC(=O)C(C)(C)C)c2c1`: the “hERG current change (%, negative = inhibition) at 1uM” value was determined as 16.1%.
For `Cc1ccc(S(=O)(=O)N2CCN(C(=O)CNC(=O)c3ccc(Br)o3)CC2)cc1`, the “hERG current change (%, negative = inhibition) at 1uM” value is -2.61%.
As for `COc1ccccc1C(=O)NC(CCSC)C(=O)NC1CCCCCC1` (stereo not drawn), the “hERG current change (%, negative = inhibition) at 1uM” value is listed as 13.4%.
Under `O=C(Nc1ccncc1)c1cccc(S(=O)(=O)N2CCc3ccccc32)c1` stands 5.25%; under `CCOC(=O)c1c(C)c(C(=O)NCc2ccc3c(c2)OCO3)c(C)n1CC`, 11.4%.
As for `CCOC(=O)CNC(=O)c1c(C)nn(-c2ccccc2)c1Cl`, the “hERG current change (%, negative = inhibition) at 1uM” value was determined as 2.03%.
The result for `O=C(NOCc1ccccc1)c1ccc([N+](=O)[O-])cc1` reads 11%; that for `CCCN=C1CC(C)(C)CC(=O)/C1=C(/O)CCC`, 16.7%; that for `CCn1cc(CCC(=O)NCc2ccccc2OC)c2ccccc21`, 11.2%.
As to `O=C(COC(=O)c1nc(Cl)ccc1Cl)NCCc1ccccc1`, the “hERG current change (%, negative = inhibition) at 1uM” value was found to be 9.9%.
In the case of `CCOc1ccc(CCNC(=O)C2CCN(c3nnc(-n4cccc4)s3)CC2)cc1`, the “hERG current change (%, negative = inhibition) at 1uM” value worked out at 10%.
The result for `N#CC1(NC(=O)COC(=O)Cn2[nH]c(=O)c3ccccc3c2=O)CCCCC1` reads 6.38%; that for `N#Cc1ccccc1Cn1cc(C(=O)c2ccco2)c2ccccc21`, 7.81%; that for `COc1ccc(OC)c(-n2c(O)cnc2Nc2nc(C)cc(C)n2)c1`, -0.817%.
On to `COc1ccc(NC(=O)C2(N(C(=O)Cn3nnnc3N)c3ccc(OC)cc3)CCCCC2)cc1`, for which the “hERG current change (%, negative = inhibition) at 1uM” value is listed as 17.1%.
For the compound `CCCc1ccc(OCCNC(C)=O)cc1`, the “hERG current change (%, negative = inhibition) at 1uM” value is 8.29%.
The result for `O=C(Nc1ccc(O)cc1)c1cc2ccccc2c(=O)s1` reads 8.99%.
Under `CCc1ccc(/C=C2/Sc3ccccc3N(CC(=O)NCC3CCCO3)C2=O)cc1` (stereo not drawn) stands 3.26%.
